Test results: the supplement of paper PMC8728848
The other results are listed elsewhere or left out.

Experiments:
Experiment in all cases: glycan array binding signal (z-score within array); higher = stronger binding
Conditions in all cases: glycan notation: IUPAC condensed, linker removed; mutation: E41G
[1] = biological target: Fuc(a1-2)[Gal(a1-3)]Gal(b1-4)GlcNAc(b1-2)Man(a1-3)[Fuc(a1-2)[Gal(a1-3)]Gal(b1-4)GlcNAc(b1-2)Man(a1-6)]Man(b1-4)GlcNAc(b1-4)GlcNAc
Method in brief: (§1)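 Negative Z-scores can be read as non-binding. The Z-score is calculated within each array and then averaged across arrays of one protein sequence at different concentrations or buffers and across linkers. Arrays, 3228 in all, were curated from the Consortium for Functional Glycomics database and kept only where the protein sequence was available.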

[2] = biological target: Fuc(a1-2)[Gal(a1-3)]Gal(b1-4)GlcNAc(b1-2)Man(a1-3)[Fuc(a1-2)[Gal(a1-3)]Gal(b1-4)GlcNAc(b1-2)Man(a1-6)]Man(b1-4)GlcNAc(b1-4)[Fuc(a1-6)]GlcNAc
Method in brief: as §1

[3] = biological target: Fuc(a1-2)[Gal(a1-3)]Gal(b1-4)GlcNAc(b1-3)GalNAc
Method in brief: as §1

[4] = biological target: Fuc(a1-2)[Gal(a1-3)]Gal(b1-4)GlcNAc(b1-3)[Fuc(a1-2)[Gal(a1-3)]Gal(b1-4)GlcNAc(b1-6)]GalNAc
Method in brief: as §1

[5] = biological target: Fuc(a1-2)[Gal(a1-3)]Gal(b1-4)GlcNAc(b1-6)GalNAc
Method in brief: as §1

[6] = biological target: Fuc(a1-2)[Gal(a1-3)]Gal(b1-4)[Fuc(a1-3)]Glc
Method in brief: as §1

[7] = biological target: Fuc(a1-2)[Gal(a1-3)]Gal(b1-4)[Fuc(a1-3)]GlcNAc
Method in brief: as §1

[8] = biological target: Fuc(a1-2)[Gal(a1-3)]Gal(b1-4)[Fuc(a1-3)]GlcNAc(b1-3)GalNAc
Method in brief: as §1

[9] = biological target: Fuc(a1-2)[Gal(a1-4)]Gal(b1-4)GlcNAc
Method in brief: as §1

[10] = biological target: Fuc(a1-2)[GalNAc(a1-3)]Gal
Method in brief: as §1

[11] = biological target: Fuc(a1-2)[GalNAc(a1-3)]Gal(b1-3)GalNAc(a1-3)[Fuc(a1-2)]Gal(b1-4)GlcNAc
Method in brief: as §1

[12] = biological target: Fuc(a1-2)[GalNAc(a1-3)]Gal(b1-3)GalNAc(b1-3)Gal(a1-4)Gal(b1-4)Glc
Method in brief: as §1

[13] = biological target: Fuc(a1-2)[GalNAc(a1-3)]Gal(b1-3)GlcNAc
Method in brief: as §1

[14] = biological target: Fuc(a1-2)[GalNAc(a1-3)]Gal(b1-3)GlcNAc(b1-2)Man(a1-3)[Fuc(a1-2)[GalNAc(a1-3)]Gal(b1-3)GlcNAc(b1-2)Man(a1-6)]Man(b1-4)GlcNAc(b1-4)GlcNAc
Method in brief: as §1

[15] = biological target: Fuc(a1-2)[GalNAc(a1-3)]Gal(b1-3)GlcNAc(b1-2)Man(a1-3)[Fuc(a1-2)[GalNAc(a1-3)]Gal(b1-3)GlcNAc(b1-2)Man(a1-6)]Man(b1-4)GlcNAc(b1-4)[Fuc(a1-6)]GlcNAc
Method in brief: as §1

[16] = biological target: Fuc(a1-2)[GalNAc(a1-3)]Gal(b1-3)GlcNAc(b1-3)GalNAc
Method in brief: as §1

[17] = biological target: Fuc(a1-2)[GalNAc(a1-3)]Gal(b1-3)GlcNAc(b1-6)GalNAc
Method in brief: as §1

[18] = biological target: Fuc(a1-2)[GalNAc(a1-3)]Gal(b1-4)Glc
Method in brief: as §1

[19] = biological target: Fuc(a1-2)[GalNAc(a1-3)]Gal(b1-4)GlcNAc
Method in brief: as §1

[20] = biological target: Fuc(a1-2)[GalNAc(a1-3)]Gal(b1-4)GlcNAc(b1-2)Man
Method in brief: as §1

[21] = biological target: Fuc(a1-2)[GalNAc(a1-3)]Gal(b1-4)GlcNAc(b1-2)Man(a1-3)[Fuc(a1-2)[GalNAc(a1-3)]Gal(b1-4)GlcNAc(b1-2)Man(a1-6)]Man(b1-4)GlcNAc(b1-4)GlcNAc
Method in brief: as §1

[22] = biological target: Fuc(a1-2)[GalNAc(a1-3)]Gal(b1-4)GlcNAc(b1-2)Man(a1-3)[Fuc(a1-2)[GalNAc(a1-3)]Gal(b1-4)GlcNAc(b1-2)Man(a1-6)]Man(b1-4)GlcNAc(b1-4)[Fuc(a1-6)]GlcNAc
Method in brief: as §1

[23] = biological target: Fuc(a1-2)[GalNAc(a1-3)]Gal(b1-4)GlcNAc(b1-3)Gal(b1-4)GlcNAc
Method in brief: as §1

[24] = biological target: Fuc(a1-2)[GalNAc(a1-3)]Gal(b1-4)GlcNAc(b1-3)Gal(b1-4)GlcNAc(b1-3)Gal(b1-4)GlcNAc
Method in brief: as §1

[25] = biological target: Fuc(a1-2)[GalNAc(a1-3)]Gal(b1-4)GlcNAc(b1-3)GalNAc
Method in brief: as §1

[26] = biological target: Fuc(a1-2)[GalNAc(a1-3)]Gal(b1-4)GlcNAc(b1-3)[Fuc(a1-2)[GalNAc(a1-3)]Gal(b1-4)GlcNAc(b1-6)]GalNAc
Method in brief: as §1

[27] = biological target: Fuc(a1-2)[GalNAc(a1-3)]Gal(b1-4)GlcNAc(b1-6)GalNAc
Method in brief: as §1

[28] = biological target: Fuc(a1-2)[GalNAc(a1-3)]Gal(b1-4)[Fuc(a1-3)]GlcNAc
Method in brief: as §1

[29] = biological target: Fuc(a1-2)[GalNAc(a1-3)]Gal(b1-4)[Fuc(a1-3)]GlcNAc(b1-3)GalNAc
Method in brief: as §1

[30] = biological target: Fuc(a1-2)[GalNAc(a1-4)]Gal(b1-4)GlcNAc
Method in brief: as §1

[31] = biological target: Fuc(a1-2)[GalNAc(b1-3)]Gal
Method in brief: as §1

Fuc(a1-3)GlcNAc = biological target: Fuc(a1-3)GlcNAc
Method in brief: as §1

[32] = biological target: Fuc(a1-3)[Gal(b1-4)]Glc6S
Method in brief: as §1

[33] = biological target: Fuc(a1-3)[Gal(b1-4)]GlcNAc
Method in brief: as §1

[34] = biological target: Fuc(a1-3)[Gal(b1-4)]GlcNAc(b1-2)Man
Method in brief: as §1

[35] = biological target: Fuc(a1-3)[Gal(b1-4)]GlcNAc(b1-2)Man(a1-3)[Fuc(a1-3)[Gal(b1-4)]GlcNAc(b1-2)Man(a1-6)]Man(b1-4)GlcNAc(b1-4)GlcNAc
Method in brief: as §1

[36] = biological target: Fuc(a1-3)[Gal(b1-4)]GlcNAc(b1-2)Man(a1-3)[Fuc(a1-3)[Gal(b1-4)]GlcNAc(b1-2)Man(a1-6)]Man(b1-4)GlcNAc(b1-4)[Fuc(a1-6)]GlcNAc
Method in brief: as §1

[37] = biological target: Fuc(a1-3)[Gal(b1-4)]GlcNAc(b1-3)Gal(b1-3)[Fuc(a1-4)]GlcNAc
Method in brief: as §1

[38] = biological target: Fuc(a1-3)[Gal(b1-4)]GlcNAc(b1-3)Gal(b1-4)[Fuc(a1-3)]GlcNAc
Method in brief: as §1

[39] = biological target: Fuc(a1-3)[Gal(b1-4)]GlcNAc(b1-3)Gal(b1-4)[Fuc(a1-3)]GlcNAc(b1-3)Gal(b1-4)[Fuc(a1-3)]GlcNAc
Method in brief: as §1

[40] = biological target: Fuc(a1-3)[Gal(b1-4)]GlcNAc(b1-3)GalNAc
Method in brief: as §1

[41] = biological target: Fuc(a1-3)[Gal(b1-4)]GlcNAc(b1-6)GalNAc
Method in brief: as §1

[42] = biological target: Fuc(a1-3)[Gal(b1-4)]GlcNAc(b1-6)[Gal(b1-3)GlcNAc(b1-3)]Gal(b1-4)Glc
Method in brief: as §1

[43] = biological target: Fuc(a1-3)[Gal(b1-4)]GlcNAc6S
Method in brief: as §1

[44] = biological target: Fuc(a1-3)[Gal3S(b1-4)]Glc
Method in brief: as §1

[45] = biological target: Fuc(a1-3)[Gal3S(b1-4)]GlcNAc
Method in brief: as §1

[46] = biological target: Fuc(a1-3)[Gal3S(b1-4)]GlcNAc6S
Method in brief: as §1

[47] = biological target: Fuc(a1-3)[GalNAc(b1-4)]GlcNAc
Method in brief: as §1

[48] = biological target: Fuc(a1-3)[GalNAc(b1-4)]GlcNAc6S
Method in brief: as §1

Fuc(a1-4)GlcNAc = biological target: Fuc(a1-4)GlcNAc
Method in brief: as §1

Fuc(b1-3)GlcNAc = biological target: Fuc(b1-3)GlcNAc
Method in brief: as §1

Gal(a1-2)Gal = biological target: Gal(a1-2)Gal
Method in brief: as §1

Gal(a1-3)Gal = biological target: Gal(a1-3)Gal
Method in brief: as §1

Gal(a1-3)Gal(b1-3)GlcNAc = biological target: Gal(a1-3)Gal(b1-3)GlcNAc
Method in brief: as §1

[49] = biological target: Gal(a1-3)Gal(b1-3)GlcNAc(b1-2)Man
Method in brief: as §1

[50] = biological target: Gal(a1-3)Gal(b1-3)GlcNAc(b1-2)Man(a1-3)[Gal(a1-3)Gal(b1-3)GlcNAc(b1-2)Man(a1-6)]Man(b1-4)GlcNAc(b1-4)GlcNAc
Method in brief: as §1

[51] = biological target: Gal(a1-3)Gal(b1-3)GlcNAc(b1-3)GalNAc
Method in brief: as §1

[52] = biological target: Gal(a1-3)Gal(b1-3)GlcNAc(b1-6)GalNAc
Method in brief: as §1

[53] = biological target: Gal(a1-3)Gal(b1-3)[Fuc(a1-4)]GlcNAc(b1-2)Man(a1-3)[Gal(a1-3)Gal(b1-3)[Fuc(a1-4)]GlcNAc(b1-2)Man(a1-6)]Man(b1-4)GlcNAc(b1-4)GlcNAc
Method in brief: as §1

Gal(a1-3)Gal(b1-4)Glc = biological target: Gal(a1-3)Gal(b1-4)Glc
Method in brief: as §1

B1: CVN-E41G (protein)
chain: MHHHHHHENLYFQSGNFSQACYNSAIQGSVLTSTCIRTNGGYNTSSIDLNSVIGNVDGSLKWQGSNFIETCRNTQLAGSSELAAECKTRAQQFVSTKINLDDHIAAIDGTLKYE
- glycan array binding signal (z-score) [1]: -0.122
- glycan array binding signal (z-score) [2]: 0.41
- glycan array binding signal (z-score) [3]: -0.189
- glycan array binding signal (z-score) [4]: -0.096
- glycan array binding signal (z-score) [5]: -0.154
- glycan array binding signal (z-score) [6]: -0.157
- glycan array binding signal (z-score) [7]: -0.151
- glycan array binding signal (z-score) [8]: -0.159
- glycan array binding signal (z-score) [9]: -0.185
- glycan array binding signal (z-score) [10]: -0.173
- glycan array binding signal (z-score) [11]: -0.16
- glycan array binding signal (z-score) [12]: -0.158
- glycan array binding signal (z-score) [13]: -0.147
- glycan array binding signal (z-score) [14]: -0.059
- glycan array binding signal (z-score) [15]: 0.532
- glycan array binding signal (z-score) [16]: -0.119
- glycan array binding signal (z-score) [17]: -0.162
- glycan array binding signal (z-score) [18]: -0.186
- glycan array binding signal (z-score) [19]: -0.166
- glycan array binding signal (z-score) [20]: -0.154
- glycan array binding signal (z-score) [21]: -0.013
- glycan array binding signal (z-score) [22]: 0.483
- glycan array binding signal (z-score) [23]: -0.139
- glycan array binding signal (z-score) [24]: -0.163
- glycan array binding signal (z-score) [25]: -0.161
- glycan array binding signal (z-score) [26]: -0.167
- glycan array binding signal (z-score) [27]: -0.179
- glycan array binding signal (z-score) [28]: -0.121
- glycan array binding signal (z-score) [29]: -0.142
- glycan array binding signal (z-score) [30]: -0.166
- glycan array binding signal (z-score) [31]: -0.125
- glycan array binding signal (z-score) (Fuc(a1-3)GlcNAc): -0.168
- glycan array binding signal (z-score) [32]: -0.089
- glycan array binding signal (z-score) [33]: -0.18
- glycan array binding signal (z-score) [34]: -0.166
- glycan array binding signal (z-score) [35]: -0.129
- glycan array binding signal (z-score) [36]: -0.101
- glycan array binding signal (z-score) [37]: -0.081
- glycan array binding signal (z-score) [38]: 0.036
- glycan array binding signal (z-score) [39]: -0.171
- glycan array binding signal (z-score) [40]: -0.166
- glycan array binding signal (z-score) [41]: -0.128
- glycan array binding signal (z-score) [42]: -0.166
- glycan array binding signal (z-score) [43]: -0.141
- glycan array binding signal (z-score) [44]: -0.188
- glycan array binding signal (z-score) [45]: -0.175
- glycan array binding signal (z-score) [46]: -0.133
- glycan array binding signal (z-score) [47]: -0.105
- glycan array binding signal (z-score) [48]: -0.114
- glycan array binding signal (z-score) (Fuc(a1-4)GlcNAc): -0.14
- glycan array binding signal (z-score) (Fuc(b1-3)GlcNAc): -0.165
- glycan array binding signal (z-score) (Gal(a1-2)Gal): -0.139
- glycan array binding signal (z-score) (Gal(a1-3)Gal): -0.158
- glycan array binding signal (z-score) (Gal(a1-3)Gal(b1-3)GlcNAc): -0.138
- glycan array binding signal (z-score) [49]: -0.137
- glycan array binding signal (z-score) [50]: -0.116
- glycan array binding signal (z-score) [51]: -0.138
- glycan array binding signal (z-score) [52]: -0.165
- glycan array binding signal (z-score) [53]: 1
- glycan array binding signal (z-score) (Gal(a1-3)Gal(b1-4)Glc): -0.178
